According to PMC8249575, “Phosphorylation and O-GlcNAcylation of the PHF-1 Epitope of Tau Protein Induce Local Conformational Changes of the C-Terminus and Modulate Tau Self-Assembly Into Fibrillar Aggregates” (Frontiers in Molecular Neuroscience, 2021):

B1: TauS262A (natural protein)
chain: not shown
notes: Tau, human, Tau2N4R (longest isoform of 441 residues), S262A; pET15b NcoI/XhoI cloning removes the polyhistidine tag; Used as monomer and, after 7 days with heparin and sonication, as seeds; also called TauS262A mutant; Tau seeds (as heparin-induced fibrils); source: E. coli BL21(DE3), purified (heating at 80°C, cation exchange)

target: B1; test: seeded fibril formation (ThT fluorescence + negative-staining TEM); seeds: TauS262A 10 μM with heparin 2.5 μM for 7 days at 37°C, sonicated, diluted 10-fold in fresh monomeric Tau at 25 μM in 100 mM MES pH 6.9, 2 mM EGTA, 1 mM MgCl2, 20 mM NaF, 1 mM DTT, 100 μM ThT; 5 to 7 days at 37°C; TEM at end-point; conditions: both partners purified

Row | binding result | Binder
1 | binds | TauS262A-G/PP (natural protein, O-GlcNAc at S400, S412 and S413; phosphoserine at S404, S400 (ca. 36%) and S396 (ca. 40%) and CDK2/GSK3β sites of the proline-rich domain, Tau, human, Tau2N4R (longest isoform of 441 residues), S262A; also called Tau-G/PP; source: E. coli BL21(DE3), purified; O-GlcNAcylated in vitro by ncOGT, then phosphorylated by CDK2/cyclin A3 and GSK3β) not shown
2 | binds | TauS262A-P (natural protein, phosphorylated at T153, T175, T181, S199, S202, T205, T212, T231, S235, S396 and S404; 12.3 ± 0.8 phosphate per Tau molecule, Tau, human, Tau2N4R (longest isoform of 441 residues), S262A; also called Tau-P; source: E. coli BL21(DE3), purified; phosphorylated in vitro by CDK2/cyclin A3) not shown
3 | binds | TauS262A-G/P (natural protein, O-GlcNAc at S400, S412 and S413; phosphoserine at S404 (90%) and S396 (15%) and CDK2 sites of the proline-rich domain, Tau, human, Tau2N4R (longest isoform of 441 residues), S262A; also called Tau-G/P; source: E. coli BL21(DE3), purified; O-GlcNAcylated in vitro by ncOGT, then phosphorylated by CDK2/cyclin A3) not shown
4 | binds | TauS262A-G (natural protein, O-GlcNAc at S400 (61% ± 2%), S412 (27% ± 1%) and S413 (47% ± 2%); 1.8 ± 0.3 GlcNAc per Tau molecule, Tau, human, Tau2N4R (longest isoform of 441 residues), S262A; also called Tau-G; source: E. coli BL21(DE3), purified; O-GlcNAcylated in vitro by ncOGT, enriched by reverse phase HPLC) not shown
5 | binds | TauS262A-PP (natural protein, phosphorylated at T153, T175, T181, S198, S199, S202, T205, S208, T212, T231, S235, S396 (88%), S400 (80%) and S404 (95%); 17.2 ± 0.8 phosphate per Tau molecule, Tau, human, Tau2N4R (longest isoform of 441 residues), S262A; also called Tau-PP; source: E. coli BL21(DE3), purified; phosphorylated in vitro by CDK2/cyclin A3, then by GSK3β) not shown

Target: the molecule itself
Test: as above
Conditions: not given

Row | Binder | binding result
6 | B1 | binds
